This passage reports TGI and GI50 results from PubChem BioAssay (NCI).

Each structure is given as a SMILES string.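 A five-concentration, 48-hour dose response in 96-well plates underlies each endpoint, interpolated linearly between surrounding concentrations. At the GI50, growth is halved. TGI: total growth inhibition.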

This assay has as its system NCI-H322M lung. The experiment in a line: DTP human tumour cell line panel, 48 h.
A word on the TGI: it is the concentration giving total growth inhibition. `O=c1oc2ccccc2c(O)c1C(c1cccc(C(c2c(O)c3ccccc3oc2=O)c2c(O)c3ccccc3oc2=O)c1)c1c(O)c2ccccc2oc1=O` showed a TGI greater than 100 µM. Take `CC(C)(C)C1=CC(=C2C=Cc3cc(O)ccc3O2)C=C(C(C)(C)C)C1=O`: the TGI was determined as 3.6 µM.

For orientation: GI50 means the concentration at which growth is held to half of that of the control. As for `CC(C)c1[nH]nc2c(NCc3ccc(-c4ccccn4)cc3)nc(SCCN(C)C)nc12`, the GI50 is 0.0608 µM and the TGI was determined as 10 µM. The corresponding values for `Cc1ccnc2c(NC(C)CCCN)cc(O)c(O)c12` (stereo not given) are 28.5 µM and greater than 100 µM. Molecule `O=[N+]([O-])c1cccc(S(=O)(=O)N/N=C/c2cc(I)cc([N+](=O)[O-])c2O)c1` returned a TGI of 68.7 µM. On the same count and under the same terms, in the case of `C=C(C)C1CCC2=CC(CC3(C)OC3C3=CC(C(=O)OC)=C(C1)O3)OC2=O` (stereo not given) it was greater than 100 µM. For `C[C@H]1COCCN1c1nc(-c2cnc(N)cc2C(F)F)nc(N2CCOCC2)n1`, the GI50 was 0.213 µM and the TGI was greater than 39.2 µM.

Turning to `COCCNCc1ccc(-c2cc3nccc(Oc4ccc(NC(=O)C5(C(=O)Nc6ccc(F)cc6)CC5)cc4F)c3s2)nc1`, the GI50 was 2.04 µM and the TGI amounted to 4.93 µM.

Take `O=C(O/N=c1/ccc(=O)/c(=N\OC(=O)c2ccccc2)c1=O)c1ccccc1`: the TGI was greater than 100 µM. As for `COc1cc2c3cc1Oc1c(OC)c(OC)cc4c1[C@@H](Cc1ccc(O)c(c1)Oc1ccc(cc1)C[C@@H]3N(C)CC2)N(C)CC4`, the TGI amounted to 50.6 µM. `O=C(Nc1ccc([N+](=O)[O-])cc1[N+](=O)[O-])C(=O)C(C(=O)c1ccc(Cl)c(Cl)c1)C1OC(=O)c2ccccc21` (stereo not given) displayed a TGI greater than 100 µM.

`COc1ccc2cc(CN3CCC(C4CCN(Cc5ccc6cc(OC)ccc6c5)CC4)CC3)ccc2c1` gave a TGI of 10.1 µM.

As for `Cc1cc2c3c([n+](C)c4ccc(F)cc4c3c1)-c1cc(F)ccc1N2C`, the GI50 is 29.1 µM and the TGI is greater than 100 µM.

`Cc1cc(N(CCC#N)CCC#N)ccc1/C=C(\NC(=O)/C=C/c1ccccc1)C(=O)Nc1ccc(Cl)cc1` registered a TGI greater than 100 µM. On to `CSc1ncc2c(C#N)c3[nH]c4ccccc4n3c(=O)c2n1`, for which the TGI was greater than 100 µM. The molecule `O=C1C[C@@H]2[C@@H](c3ccccc3)[C@@H]3C(=O)c4ccccc4NC(=O)[C@H]3[C@]2(O)c2ccccc2N1` gave a TGI greater than 100 µM. `Clc1cc(OCc2nn3c(Cc4ccccc4)nnc3s2)c(Cl)cc1OCc1nn2c(Cc3ccccc3)nnc2s1` displayed a TGI greater than 100 µM.

`O=[N+]([O-])C(C(Cl)=C(Cl)Cl)=C(n1nnc2ccccc21)n1nnc2ccccc21` showed a TGI greater than 69 µM. `C[C@]12CC(C=O)C(=O)C(O)=C1CC[C@@H]1C2CC[C@@]2(C)C1CC[C@]2(C)O` (stereo not given in full) displayed a TGI of 44.3 µM.

As for `[Cl][Hg][c]1ccc2ccccc2c1`, the GI50 was 6.06 µM and the TGI was found to be 14.2 µM. Molecule `CN(C)c1cccc(OC(=O)NCCCl)c1` returned a TGI greater than 100 µM. In turn, `O=[N+]([O-])c1ccc(C2SCc3nc4ccccc4n32)cc1` (stereo not given) had a TGI greater than 100 µM. `O=S(O)CCCSSSCCCS(=O)O`: the TGI was greater than 100 µM.

Consider `COc1ccc2c(C)cc(N/N=C/c3ccc(C)s3)nc2c1`, for which the TGI amounted to 24.5 µM. Still for that read-out and setting: in the case of `COc1ccc(CCc2ccc3c(c2)OCO3)cc1` it was greater than 100 µM.

With `O=C1C(Cl)=C(Nc2cc(Cl)ccc2O)C(=O)N1Cc1ccccc1`, the GI50 was 23.9 µM and the TGI was 47.1 µM.

The molecule `COC(=O)c1sc2c(c1C(=O)OC)C(=NC(C)(C)C)SC2=NC(C)(C)C` registered a TGI of 51.1 µM. For `COC(=O)c1c2c(c(C)[n+]([O-])c1C)C(=O)C(NCc1ccc(F)cc1)=CC2=O`, the GI50 was 1.51 µM and the TGI came to 4.72 µM. Turning to `O=C(Sc1n[nH]c(=O)[nH]c1=O)c1cccc2nc3ccccc3nc12`, the TGI turned out to be 83.4 µM.

`CC(=O)O[C@H]1CC[C@H]2[C@@H]3CCC4=C/C(=N/OCCN(C)C)CC[C@]4(C)[C@H]3CC[C@]12C` gave a TGI of 25.6 µM. On to `Nc1nc(Cl)c(N)c(NCC2(CO)CCC(CCc3ccccc3)C2)n1` (stereo not given), for which the TGI is 68.3 µM. With `COc1c(-c2ccc3c(c2)OCO3)oc2cc(O)cc(O)c2c1=O`, the TGI is greater than 100 µM.
